About 200 (0.44%) of roughly 45,000 compounds were called active. Another 7% or so got no clear call; they are omitted. Calls follow the shape of the dose curve; as a rule, active = well fitted activation curve with a large enough effect; inconclusive = small, poorly fitted or top-dose-only effect; inactive = no such curve, though single readings can be large or run the other way. This is one part of the list.

The results in this text go back to PubChem BioAssay AID1347073 (National Center for Advancing Translational Sciences (NCATS), 2019).

The nature of this experiment: qHTS of TDP-43 Inhibitors: NCGC Sytravon Library Screen. Also: 0% is about no effect; nearly all actives have a fitted effect of over 55% in size. As to conditions: yeast TDP-43 toxicity rescue, BacTiter-Glo growth, 24 h; series mostly up to 46.1 µM; growth rescue (activation): at the top concentration. A digest of the protocol:
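TDP-43-expressing yeast, pregrown in raffinose, seeded at OD600 0.02 in galactose medium with compound for 24 hr at 30 deg C. Growth read by BacTiter-Glo luminescence, so rescue of toxicity appears as activation.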
On the technique in general: Quantitative high-throughput screening tests each substance at several concentrations.
`O=C(CCN1CCCO1)N1CCCC(N2CCN(c3cccc(C(F)(F)F)c3)CC2)C1` (stereo not given): the “growth rescue (activation)” value is inactive: -14.1%.
As to `Nc1ccc(S(=O)(=O)NCc2ccccn2)cc1`, the “growth rescue (activation)” value is inactive: -7.53%.
Consider `O=C(COC(=O)c1cc(Cl)nc(Cl)c1)Nc1ccc(Cl)c(S(=O)(=O)N2CCOCC2)c1`, for which the “growth rescue (activation)” value was inactive: 9.37%.
To `CCOC(=O)N1CCN(C(=O)c2ccc(-n3c(C)ccc3C)cc2)CC1` belongs inactive: -15.6%; to `O=C1NC2(CCCCC2)C(=O)N1CCS(=O)(=O)Oc1ccc(Br)cc1`, inactive: 6.51%.
To `O=C(Nc1ccc(NC(=O)C2CC2)cc1)c1ccco1` belongs inactive: 0.213%; to `CCOC(=O)C1CCN(C(=O)COc2ccc(S(=O)(=O)N3CCCC3)cc2C)CC1`, inactive: -9.1%.
`CCN(CC)CCNC(=S)Nc1ccc(F)cc1`: the “growth rescue (activation)” value is inactive: 6.21%.
Turning to `O=C(O)c1cccc(S(=O)(=O)Nc2ccc(OCc3ccccc3)cc2)c1`, the “growth rescue (activation)” value is inactive: 0.529%.
Consider `Cc1cccc[n+]1CC(=O)/C=C1\N(C)c2ccccc2C1(C)C`, for which the “growth rescue (activation)” value was inactive: 15.5%.
The result for `CCc1nnc(NS(=O)(=O)c2ccc(NC(=O)c3cc(Cl)ccc3Cl)cc2)s1` reads inactive: 0.579%; that for `Cc1csc(NC(=O)C2CC(=O)N(c3ccc(C)c(C)c3)C2)n1` (stereo not given), inactive: 1.17%.
For the compound `CCOC(=O)c1ccc2c(c1)n(CCCS(=O)(=O)[O-])c(/C=C/c1ccc(Cl)cc1)[n+]2CC`, the “growth rescue (activation)” value is inactive: 30%.
To `Cc1ccc(-c2nn(-c3ccccc3)cc2C(=O)Nc2ccc(C)c(S(=O)(=O)N3CCOCC3)c2)cc1` belongs inactive: 2%.
The result for `CCOc1ccc(OCC)c(NC(=O)CN2CCN(c3cccc(C)c3)C(C)C2)c1` (stereo not given) reads inactive: 1.7%.
To `CCN(CC)CCN1C(=O)/C(=C\c2ccc(Cl)c([N+](=O)[O-])c2)SC1=Nc1ccc(OC)cc1` belongs inactive: 0.248%; to `CCCN1C(=O)/C(=N\OCC(=O)NCC(F)(F)F)c2ccccc21`, inactive: 3.86%.
Regarding `COc1ccccc1CN(C)CC(=O)Nc1cccc(S(=O)(=O)N2CCCC2)c1`, the “growth rescue (activation)” value is inactive: -9.73%.
To `Cc1cc(C)nc(SCc2ccc(C(=O)N/N=C3\CCCC(=O)C3)cc2)n1` belongs inactive: 6.87%; to `Cc1ccc(-c2nn(C)c(=O)c3ccccc23)cc1S(=O)(=O)NCCN(C)C`, inactive: -5.65%.
`O=C(Cc1c(Cl)cccc1Cl)OCC(=O)N1CCN(C(=O)c2ccco2)CC1`: the “growth rescue (activation)” value was inactive: 1.83%.
Consider `O=C(CN1C(=O)C(=O)N(C2CCCC2)C1=O)NCCc1ccc(F)cc1`, for which the “growth rescue (activation)” value was inactive: 4.07%.
As for `N#Cc1cc([N+](=O)[O-])cnc1N(CCO)CCO`, the “growth rescue (activation)” value was inactive: 0.711%.
To `Cc1ccc([N+](=O)[O-])cc1NC(=O)CN1CCC(C)CC1` belongs inactive: 14.8%.
To `O=C(CC1CCCCC1)NCc1ccccc1` belongs inactive: 4.77%.
The result for `CCCOc1ccc(N2C(=O)C3ON(c4ccccc4)C(c4ccc(O)c(OC)c4)C3C2=O)cc1` (stereo not given) reads inactive: 4.3%.
For the compound `S=c1[nH]nc(-c2c[nH]c3ccccc23)o1`, the “growth rescue (activation)” value was inactive: 4.65%.
To `Cc1nc(C)c(-c2csc(Nc3ccc(F)cc3)n2)s1` belongs inactive: 18.1%; to `COc1ccc2[nH]c(=O)c(CN(Cc3cccnc3)S(=O)(=O)c3ccccc3F)cc2c1`, inactive: 0.865%.
As to `Cc1ccccc1NC(=O)CN1C(=O)CSc2ccccc21`, the “growth rescue (activation)” value was inactive: 5.3%.
The result for `O=C(CSc1nc(-c2ccco2)cc(C(F)(F)F)n1)N1CCc2ccccc2C1` reads inactive: -3.53%; that for `Cc1ccc(S(=O)(=O)NCCN2CCOCC2)c(C)c1C`, inactive: 8.55%.
In the case of `CCS(=O)(=O)NC(=O)C1(C)CCN1C(=O)C1(c2ccc(Cl)cc2)CC1` (stereo not given), the “growth rescue (activation)” value is inactive: -0.585%.
In the case of `CN(C)C(CNC1CC(C)(C)NC(C)(C)C1)c1cccc(F)c1` (stereo not given), the “growth rescue (activation)” value is inactive: -8.62%.
To `O=C1c2cccc3c(N4CCCCC4)ccc(c23)C(=O)N1c1ccc(O)cc1` belongs inactive: 19.9%; to `O=C(COC(=O)c1cc(-c2cccc3ccccc23)nc2ccccc12)NC1CCS(=O)(=O)C1` (stereo not given), inactive: -1.16%; to `CCCSc1ncc(Cl)c(C(=O)Nc2ccc(S(=O)(=O)Nc3ncccn3)cc2)n1`, inactive: 9.96%.
To `COc1ccccc1N1CCN(C(=O)c2sc3ncnc(N4CCN(c5ccccn5)CC4)c3c2C)CC1` belongs inactive: 25%.
The result for `CCN1C(=O)C(=O)N(Cc2ccc(OC)c(F)c2)C1=O` reads inactive: -12.7%; that for `CCCCN(C(=O)CSc1nc(CCC)cc(=O)[nH]1)c1c(N)n(Cc2ccccc2)c(=O)[nH]c1=O`, inactive: -24.4%.
Take `COc1ccccc1-c1cnc(C(O)c2c(C)cc(C)cc2C)[nH]1` (stereo not given): the “growth rescue (activation)” value is inactive: 7.42%.
With `Cc1cc(NS(=O)(=O)c2ccc(NC(=O)/C=C/c3ccccc3)cc2)nc(C)n1`, the “growth rescue (activation)” value was inactive: -7.53%.
As to `Cn1c(C(=O)O)c(CC(=O)Nc2ccc3c(c2)OCCO3)c2ccccc21`, the “growth rescue (activation)” value was inactive: 16.8%.
To `O=C(Nc1ccc(NC(=O)c2ccco2)nc1)c1cccc(F)c1` belongs inactive: 2.75%; to `COc1ccc(/C=N/NC(=O)c2cc(-c3cccn3C)n[nH]2)cc1OC`, inactive: -3.25%.
For `CC(C)[C@H](NS(=O)(=O)c1ccccc1)C(=O)OCC(=O)N1N=C(c2ccc(Cl)cc2)CC1c1ccco1` (stereo not given in full), the “growth rescue (activation)” value was inactive: 14.8%.
The result for `CCN(C(=S)Nc1cccnc1)c1cccc2ccccc12` reads inactive: 10.2%.
For `COc1ccc(C(=O)Nc2ccccc2C(=O)N2CCOCC2)cc1Br`, the “growth rescue (activation)” value was inactive: 5.03%.
With `COc1cc(C(=O)NC(=S)N2CCN(C)CC2)cc(OC)c1OC`, the “growth rescue (activation)” value is inactive: 10.5%.
For the compound `CCOc1ccc(-n2ccc(=O)c(C(=O)O)n2)cc1`, the “growth rescue (activation)” value was inactive: -5.98%.
The result for `COc1ccc(C)cc1NC(=O)Nc1cccc(C(=O)O)c1` reads inactive: -3.05%; that for `COc1ccccc1NC(=O)c1ccc(NC(=O)CNC(=O)c2ccc(OC)c(OC)c2)cc1`, inactive: 20.5%.
To `CC1(C)Cc2c(cnn2-c2ccc(F)cc2)C(NC(=O)c2ccc(=O)oc2)C1` (stereo not given) belongs inactive: 25.8%.
To `CCNC(=O)C1CCCN(C(=O)c2cc(C)oc2C)CC1` (stereo not given) belongs inactive: 3.68%; to `Cc1cccc(N2CCN(C(=O)CCCn3c(=O)[nH]c4ccsc4c3=O)CC2C)c1` (stereo not given), inactive: 9.27%; to `O=C(c1ccccc1NS(=O)(=O)c1ccc(F)cc1F)N1CCCCC1`, inactive: 9.37%.
On to `NC(=S)c1cc2cc(Br)ccc2oc1=O`, for which the “growth rescue (activation)” value is inactive: 0.691%.
To `COc1ccc(OC)c(NC(=O)/C=C/c2ccc(S(=O)(=O)N3CCOCC3)cc2)c1` belongs inactive: 13.1%.
The result for `Cc1cc(C(=O)CSc2nnc(-c3ccc4c(c3)OCO4)o2)c(C)n1-c1ccc(F)cc1` reads inactive: 2.75%; that for `CCc1cc2ccc(OC)cc2nc1SCC(=O)NNC(=O)c1ccco1`, inactive: 13.6%; that for `CC1CC(C)CN(C(=O)CN2C(=O)NC3(CCCCCC3)C2=O)C1` (stereo not given), inactive: -5.11%.
The result for `COC(=O)CCCCNC(=O)Nc1ccccc1` reads inactive: -13.5%.
`Cc1ccc(NC(=O)CN2C(=O)NC(C)(CC(C)C)C2=O)c(Br)c1` (stereo not given): the “growth rescue (activation)” value is inactive: 1.56%.
On to `COC(=O)/C(=C/c1ccco1)NC(=O)c1ccc(Br)o1`, for which the “growth rescue (activation)” value is inactive: -3.1%.
Consider `Cn1c(=O)[nH]c(=O)c2c1nc(N1CCCCCC1)n2Cc1cccc2ccccc12`, for which the “growth rescue (activation)” value was inactive: 15.7%.
The result for `Cc1cccc(NC(=O)COC(=O)c2ccccn2)c1` reads inactive: 7.23%; that for `CC(C)CC(NC(=O)c1cccs1)c1nnc(SCc2ccc(Cl)c(Cl)c2)n1C` (stereo not given), inactive: 10.2%; that for `Cc1ccc(SCCOCCN2CC(C)OC(C)C2)cc1` (stereo not given), inactive: -9.86%.
To `Cc1cc(Nc2cccc(Cl)c2)nc(-c2ccccc2O)n1` belongs inactive: 13.3%; to `CCc1ccc(C(C(=O)NC2CCCCC2)N(C(=O)c2csnn2)C2CC2)cc1` (stereo not given), inactive: -2.56%; to `CCc1nc2c(OCc3ccc(OC)cc3)cccn2c1N(C)C(=O)c1ccc(OC)cc1`, inactive: 2.37%.
With `CC1(C)Cc2c(sc3[nH]c(=S)[nH]c(=O)c23)CO1`, the “growth rescue (activation)” value was inactive: 5.27%.
With `CC(=O)Oc1ccc(/C=C2/C(=O)N(c3ccccc3)N=C2C)cc1`, the “growth rescue (activation)” value was inactive: -3.85%.
To `COc1ccc(-c2nnc(C(C)Nc3cccc(C(=O)NC4CC4)c3)o2)cc1` (stereo not given) belongs inactive: 23.6%; to `COC(=O)c1ccc(Cl)c(NC(=O)c2cccc([N+](=O)[O-])c2C)c1`, inactive: 6.17%; to `Cc1ccc([N+](=O)[O-])cc1S(=O)(=O)Nc1cccc(S(=O)(=O)NC2=NCCC2)c1`, inactive: 6.73%.
On to `CC(C)n1nc(C(=O)Nc2ccc(-n3cnnn3)cc2)c2ccccc2c1=O`, for which the “growth rescue (activation)” value was inactive: 4.06%.
To `COc1cccc(NC(=O)Cn2c(CCC(=O)O)ccc2-c2cccs2)c1` belongs inactive: -8.95%.
The result for `Cc1cc(C(=O)CSc2nnc(-c3ccco3)o2)c(C)n1C` reads inactive: 7.27%; that for `Cc1nn(-c2ccc([N+](=O)[O-])cc2)c2c1C(c1cccc(Br)c1)N1C(=N2)C(=O)Nc2ccccc21` (stereo not given), inactive: 11.7%.
`CCCc1nc(C)cc(N2CCN(c3ccccc3)CC2)n1`: the “growth rescue (activation)” value was inactive: -9.94%.
Turning to `O=C(NCCCN1CCOCC1)c1nn2c(C(F)(F)F)cc(-c3ccco3)nc2c1Cl`, the “growth rescue (activation)” value was inactive: -7.81%.
To `Cc1ccccc1OCCOC(=O)c1c(-c2ccccc2)noc1C` belongs inactive: 19%.
To `CCOC(=O)c1cc(NC(=O)COc2ccc([N+](=O)[O-])cc2)cc(C(=O)OCC)c1` belongs inactive: -24.9%; to `CCCCc1c(C)nc2c(OC)cccc2c1SCC(=O)O`, inactive: -3.64%.
In the case of `COC(=O)C(CC(C)C)NC(=O)/C=C/c1ccccc1Cl` (stereo not given), the “growth rescue (activation)” value is inactive: 2.13%.
The result for `COc1ccc2oc(C(F)(F)C(F)(F)F)cc(=O)c2c1` reads inactive: 36.8%.
As to `Nc1ccc(NC(=O)c2ccco2)c(Cl)c1`, the “growth rescue (activation)” value was inactive: 4.65%.
Regarding `Cc1ccc(NC(=O)c2ccco2)c(NC(=O)COc2ccccc2)c1`, the “growth rescue (activation)” value is inactive: 21.4%.
With `O=C(Nc1ccc(NC(=O)c2ccc3c(c2)OCCO3)cc1)c1ccccc1`, the “growth rescue (activation)” value is inactive: 2.86%.
Take `CCn1nnnc1SCC(=O)Nc1ccc(F)cc1`: the “growth rescue (activation)” value is inactive: -23.8%.
In the case of `CCOc1ccccc1N1CC(C(=O)N2CCOCC2)CC1=O` (stereo not given), the “growth rescue (activation)” value was inactive: 14.9%.
For `COc1ccc(NC(=O)C2CCN(C(=O)c3ccco3)CC2)c(OC)c1`, the “growth rescue (activation)” value was inactive: 7.71%.
For the compound `O=C1c2ccccc2NC(c2cccs2)N1NS(=O)(=O)c1ccccc1` (stereo not given), the “growth rescue (activation)” value is inactive: -5.17%.
The result for `O=c1cc(-c2ccccc2)nc(SCc2ccc(Cl)cc2)[nH]1` reads inactive: -24.4%; that for `CC(OC(=O)c1cc2c(s1)CCCCC2)C(=O)NC(N)=O` (stereo not given), inactive: 8.06%; that for `CCCCCn1c(=O)[nH]c2cc(C(=O)NCc3ccccn3)ccc2c1=O`, inactive: 4.2%.
To `COc1ccc(N2CCN(C(=O)C34CCC(C)(C(=O)C3)C4(C)C)CC2)cc1` (stereo not given) belongs inactive: 3.61%.
The result for `NC(=NC1CCCCC1)c1ccc(Cl)cc1` reads inactive: -4.36%; that for `CCCCNC(=O)CSc1nc(N)c(C(=O)Nc2ccc(OC)cc2)s1`, inactive: -3.68%.
Take `COc1cc2c(c(OC)c1OC)-c1ccc(OC)c(=O)cc1[C@@H](N(C)CC#CCO)CC2`: the “growth rescue (activation)” value was inactive: 7.6%.
To `COc1cc(S(=O)(=O)N2CCCCC2)ccc1NC(=O)c1ccncc1` belongs inactive: 3.78%; to `CN1C/C(=C/c2ccsc2)C(=O)/C(=C/c2ccsc2)C1`, inactive: -2.38%; to `CC(=O)Nc1ccc(SCC(=O)N2CCN(S(=O)(=O)c3ccccc3)CC2)cc1`, inactive: -2.54%.
With `Cc1cc(NC(=O)C2C3C(=O)N(Cc4ccc(Cl)cc4)C(C(=O)NCc4ccccc4)C34C=CC2(C)O4)no1` (stereo not given), the “growth rescue (activation)” value is inactive: -2.59%.
